# Measured values taken from PubChem BioAssay AID485313 (National Center for Advancing Translational Sciences (NCATS), 2010).
# Out of some 320,000 compounds screened, about 7,600 (2.4%) were called active. Inconclusive means that the source gave no clear call. Such entries were picked first, then a sample of the others. Calls follow the shape of the dose curve; as a rule, active = well fitted activation curve with a large enough effect; inconclusive = small, poorly fitted or top-dose-only effect; inactive = no such curve, though single readings can be large or run the other way. Potencies of inconclusive entries are left out as doubtful fits.
# Assay: qHTS Assay for NPC1 Promoter Activators; also: nearly all actives have a fitted effect of over 60% in size;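 as to activation: reporter is driven by a mutant NPC1 promoter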
# Conditions: Huh7 NPC1 promoter luciferase reporter, 24 h; series mostly up to 9.22 µM
# Outline: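 Quantitative HTS used a cell-based reporter: Huh7 cells stably bearing the NPC1 promoter upstream of luciferase were treated with compounds for 24 h, and promoter activation was read as luminescence.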
# Potency is read from the fitted curve at half-maximal effect; tags tell the direction and shape of the fitted curve.
row,SMILES,Potency
1,O=c1/c(=C/c2ccccn2)sc2nc3ccccc3n12,"inconclusive [activator, single point]"
2,COc1ccc(-c2cc(C(=O)c3c(N)n(C)c(=O)n(C)c3=O)c3ccccc3n2)cc1,"inconclusive [activator, partial curve]"
3,Cc1ccn2c(NCc3ccccc3)c(-c3cccs3)nc2c1,"inconclusive [activator, partial curve]"
4,COc1cc(C)ccc1OCc1cc(C(=O)NCc2ccncc2)no1,active: 2.82 µM
5,O=C(N/N=C/c1ccc2nccnc2c1)c1ccccc1O,"inconclusive [activator, partial curve]"
6,Cc1ccc(/C=N\NC(=O)/C(=C\Nc2nccc(C)n2)NC(=O)c2ccccc2)cc1,inactive
7,O=C(CCS(=O)(=O)c1ccccc1)Nc1ccc(-c2nc3ccccc3s2)c(O)c1,"inconclusive [activator, full curve]"
8,NC(=O)c1ccccc1NC(=O)/C=C/c1c(Cl)cccc1Cl,"inconclusive [activator, single point]"
9,Cc1ccc2c(CNCc3ccco3)cc(=O)oc2c1,"inconclusive [activator, partial curve]"
10,Cn1c(/C=N/Nc2nc3ccccc3[nH]2)nc2ccccc21,"inconclusive [activator, single point]"
11,CC(=O)Nc1ccc(N/C=C/C(=O)c2ccc(C)cc2)cc1,"inconclusive [activator, single point]"
12,Cc1ccc2oc(=O)n(CCCOc3ccccc3)c2c1,"inconclusive [activator, single point]"
13,COC(=O)c1ccc(NC(=O)Nc2ccccc2F)cc1,active: 0.398 µM
14,Fc1cccc2sc(Nc3nc4cc5c(cc4s3)OCO5)nc12,active: 3.98 µM
15,O=C(/C=C\Nc1ccc2c(c1)OCO2)c1ccccn1,"inconclusive [activator, partial curve]"
16,c1ccc2c(c1)CC/C2=N/Nc1nc2ccccc2[nH]1,"inconclusive [activator, single point]"
17,COc1cccc(OCC(=O)NNC(=O)C(=O)Nc2ccc(OC)cc2OC)c1,inactive
18,CCOC(=O)CSc1nc(-c2ccc3c(c2)OCO3)ccc1C#N,active: 2.51 µM
19,COc1ccccc1N(C)S(=O)(=O)c1ccc(C(=O)Nc2ccc(N3CCOCC3)cc2)cc1,inactive
20,Clc1cccc(-c2ccc(CNCCCN3CCOCC3)o2)c1,inactive
21,O=C1/C(=C/c2ccc(O)c(O)c2)Oc2cc(O)ccc21,"inconclusive [activator, single point]"
22,CCCNc1nc(-c2cc(-c3ccc(Cl)cc3)on2)cc(C(C)C)n1,inactive
23,CC(=O)c1ccc(NC(=O)CSc2nccn2CCc2ccccc2)cc1,"inconclusive [activator, single point]"
24,O=C(Cc1ccc(Cl)cc1)N/N=C1\CCCc2ccccc21,inactive
25,Cc1ccc(Cl)c(OCC(=O)Nc2sc(C)c(C)c2C#N)c1,"inconclusive [activator, partial curve]"

row,SMILES,Potency
1,Cc1nc(N2CCc3ccccc3C2)[nH]c(=O)c1CCC(C)C,inactive
2,COc1ccc(N(CC(=O)NCCc2ccccc2)C(=O)CCC(=O)Nc2nccs2)c(OC)c1,"inconclusive [activator, single point]"
3,COc1ccccc1CC(=O)NCc1csc(-c2cccs2)n1,"inconclusive [activator, single point]"
4,CCCOC(=O)c1sc2nc3c(cc2c1N)C(=O)CCC3,"inconclusive [activator, single point]"
5,CSc1ccccc1NC(=O)c1cc(C(C)C)on1,"inconclusive [activator, partial curve]"
6,Cc1csc(N/N=C\c2cccnc2)n1,"inconclusive [activator, single point]"
7,COc1ccc(/C(C)=N\NS(=O)(=O)c2ccccc2)cc1OC,inactive
8,COc1ccc(-c2csc(NC(=O)c3ccoc3C)n2)cc1,"inconclusive [activator, single point]"
9,CCOC(=O)c1ccc(NC(=O)C23CCC(C)(C(=O)O2)C3(C)C)cc1 (stereo not given),"inconclusive [activator, partial curve]"
10,COc1ccc(NS(=O)(=O)c2ccc(N3CC(O)=C(c4ccccc4)C3=N)cc2)cc1,inactive
11,Cc1ccc(NC(=O)Nc2cccc([N+](=O)[O-])c2)cc1F,"inconclusive [activator, partial curve]"
12,C/C(=N\NC(=O)c1ccc2c(c1)OCO2)c1cccnc1,"inconclusive [activator, partial curve]"
13,Cc1cccc(-n2ncc3c(NCCCN4CCCC4=O)ncnc32)c1,"inconclusive [activator, partial curve]"
14,O=C(c1cnn(-c2ccccc2)c1)c1cc(F)ccc1O,"inconclusive [activator, single point]"
15,COC(=O)Cc1c(C)c2ccc(OC(C)C)cc2oc1=O,"inconclusive [activator, partial curve]"
16,CCCn1nnc(NC(=O)Cc2ccccc2)n1,inactive
17,O=C(/C=C/Nc1cccc(F)c1)c1ccco1,"inconclusive [activator, single point]"
18,COC(=O)C1CCN(C(=O)c2cc(=O)[nH]c3ccccc23)CC1,inactive
19,O=c1[nH]c(-c2ccco2)nc2sc3c(c12)CCCC3,active: 2 µM
20,CCN1C(=S)SC(=O)C1=C1C=C(C)N(CCOC)C(C)=C1,active: 0.398 µM
21,CCn1cnc2cc(NCc3nc4ccccc4n3C)ccc21,active: 0.794 µM
22,CCCc1ccc2oc(C(=O)N3CCC[C@H]3CO)c(C)c2c1,active: 6.31 µM
23,Cn1c(COc2ccc3ccccc3c2)nnc1SCC(=O)O,"inconclusive [activator, single point]"
24,CCc1ccc(O)c(-c2cc(C(=O)Nc3cccnc3)[nH]n2)c1,active: 1.58 µM
25,CS(=O)(=O)Nc1ccc(OCc2ccccc2)cc1,"inconclusive [activator, partial curve]"

row,SMILES,Potency
1,c1ccc(-c2csc(N3CCc4ccccc4C3)n2)cc1,"inconclusive [activator, single point]"
2,COc1nc(C)ccc1-c1noc(-c2ccccn2)n1,active: 1.26 µM
3,CCCNC(=O)C(=O)Nc1ccc(N(C)C)cc1,"inconclusive [activator, single point]"
4,CCNS(=O)(=O)c1ccc(CCC(=O)NCc2ccccn2)cc1,inactive
5,CSc1ccccc1OCc1cc(C(=O)N2CCN(C3CCCC3)C(=O)C2)no1,"inconclusive [activator, single point]"
6,COc1ccccc1-c1cc(C(=O)Nc2ccc(F)cc2F)no1,"inconclusive [activator, partial curve]"
7,Nc1c(-c2cccc(Cl)c2)cnn1-c1ccccc1,"inconclusive [activator, partial curve]"
8,Cc1ccc2nc3sc(C(=O)NCc4ccco4)c(N)c3cc2c1,"inconclusive [activator, single point]"
9,Cc1cc(-c2ccc(S(=O)(=O)N3CCN(c4cccc(C)c4C)CC3)s2)on1,inactive
10,Cc1ccc(CSCC(=O)Nc2ccc(N3CCOCC3)cc2N2CCOCC2)cc1,inactive
11,O=C(/C=C/c1c(F)cccc1Cl)Nc1cccnc1,active: 1.58 µM
12,COc1ccc2cc3cc(C(=O)NCCCN4CCc5ccccc5C4)sc3nc2c1,"inconclusive [activator, partial curve]"
13,Cc1ccc2nc(NC(=O)CSCC(=O)Nc3cc(C)on3)sc2c1,"inconclusive [activator, partial curve]"
14,CCC(=O)NCCc1nc2cc(NC(=O)c3ccco3)ccc2n1C,"inconclusive [activator, partial curve]"
15,Cc1cc(O)c(C(=O)/C=C/c2ccc(C(C)C)cc2)c(=O)o1,"inconclusive [activator, partial curve]"
16,CC1CN(Cc2csc(-c3ccc(Cl)cc3)n2)CC(C)O1 (stereo not given),"inconclusive [activator, single point]"
17,Cc1ccc(NC2=C/C(=N/S(=O)(=O)c3cccs3)c3ccccc3C2=O)cc1C,"inconclusive [activator, partial curve]"
18,COC(=O)c1ccc(-c2ccc(/C=N/N3C(=O)C4C5C=CC(CC5)C4C3=O)o2)cc1 (stereo not given),active: 3.16 µM
19,CCOC(=O)C1CCN(c2nc3ccccc3nc2C(C#N)C(=O)NCCc2ccccc2)CC1 (stereo not given),"inconclusive [activator, single point]"
20,COc1ccccc1OCCCOc1ccc([N+](=O)[O-])cc1Cl,"inconclusive [activator, single point]"
21,Cc1ccsc1/C=N\NC(=O)c1cc(C(C)(C)C)[nH]n1,active: 2.82 µM
22,Cc1ccc(CNc2nc(-c3cccnc3)nc3ccccc23)cc1,inactive
23,O=[N+]([O-])c1cc(C(F)(F)F)ccc1NCCOc1ccccc1,"inconclusive [activator, single point]"
24,COc1ccc(C(=O)NCC(=O)N/N=C/C=C/c2ccccc2)cc1OC,inactive
25,Cc1cc(C(=O)OCC(=O)N2CCc3ccccc32)c(C)o1,"inconclusive [activator, single point]"
